The results in this text go back to ChEMBL document CHEMBL4888484, “Replenishing the malaria drug discovery pipeline: Screening and hit evaluation of the MMV Hit Generation Library 1 (HGL1) against asexual blood stage Plasmodium falciparum ,using a nano luciferase reporter read-out” (2022).

By % Inhibition is commonly meant the drop in the measured response relative to a control, in per cent.

Out of some 150,000 compounds screened, about 540 (0.36%) showed an effect of 50% or more. The list shows a part of the results.

The assay has as its system Plasmodium falciparum. As to the kind of experiment: Primary screen in NF54 nanoGlo assay, in single point, at 2uM, 72h; a lower Z score goes with more inhibition. Format: functional, Erythrocyte. The note with it: timepoint 72 hour.
For the compound `CN1CCN(Cc2cnc(-c3cccc4ccccc34)nc2)C[C@@H]1CCO`, the “% Inhibition” value is -9% and the Z score was determined as 1.11.
For `Cc1ccc(Cl)cc1NC(=O)CN1C(=O)CCn2nc(-c3cn(C)c4ccccc34)cc21`, the “% Inhibition” value is given as -2% and the Z score turned out to be 0.36.
As for `CC(NC(=O)N1CC(C)C1c1ccccc1)c1nncn1C` (stereo not given), the “% Inhibition” value is given as 29% and the Z score is -3.23.
On the same counts, the results for `COc1ccnc(C(=O)N2CC3CCC2C3)c1` (stereo not given) are -9% and 1.11.
Consider `Cc1nc(-c2cccc(F)c2)nc(N2CCN(C(=O)Nc3cccc4ccccc34)CC2)c1Cc1ccccc1`, for which the “% Inhibition” value came to 2% and the Z score is on record as -0.24.
With `O=C(Cn1c2c(c3ccccc31)CCC2)NC[C@H]1CCS(=O)(=O)C1`, the “% Inhibition” value is 5% and the Z score is given as -0.6.
Regarding `Nc1c(S(=O)(=O)c2ccccc2)c2nc3ccccc3nc2n1Cc1ccc2c(c1)OCO2`, the “% Inhibition” value is listed as -12% and the Z score amounted to 1.04.
Regarding `O=S1(=O)NC[C@H](O)CN(Cc2ccccc2)C[C@@]2(COc3ccccc31)C[C@@H](O)[C@@H](O)C2`, the “% Inhibition” value is given as 27% and the Z score is recorded as -3.
Turning to `Cc1nnc2c(N(C)CCOc3cccc(F)c3)nccn12`, the “% Inhibition” value came to 9% and the Z score is -1.17.
On the same counts, the results for `Cc1noc(N)c1C(=O)O[C@@H](C)C(=O)N1CCOCC1` are 1% and -0.07.
Regarding `Cc1noc(C)c1-n1c(CCn2cccn2)n[nH]c1=O`, the “% Inhibition” value stood at 6% and the Z score is -1.12.
As to `O=c1c2cc(Cl)ccc2ncn1Cc1csc(Cc2ccc(Cl)cc2)n1`, the “% Inhibition” value stood at 6% and the Z score is -0.9.
In the case of `Cn1cc(C(NC(=O)C2Cc3ccccc3C(=O)O2)C(C)(C)C)cn1` (stereo not given), the “% Inhibition” value was -4% and the Z score worked out at 0.58.
Consider `O=C(CNc1ncc(Br)cn1)N1CCOCC1`, for which the “% Inhibition” value is recorded as -2% and the Z score is 0.19.
Take `COc1cn(CC(=O)NCc2cccnc2)c(CO)cc1=O`: the “% Inhibition” value worked out at 4% and the Z score is -0.71.
Turning to `CCOc1nc(N[C@@H](CO)c2ccco2)ncc1Br`, the “% Inhibition” value is reported as -11% and the Z score is listed as 1.27.
`COc1ccc(Cl)cc1C(=O)N1Cc2cccnc2C1`: the “% Inhibition” value was found to be 6% and the Z score is reported as -0.74.
As for `O=C(C1CCOCC1)N1CCN(CCF)CC1`, the “% Inhibition” value is recorded as -18% and the Z score amounted to 2.25.
`COc1ccc(Cc2nc(-c3cccs3)no2)cc1`: the “% Inhibition” value was -5% and the Z score stood at 0.7.
Consider `COCCOCC(=O)Nc1cc(F)cc(F)c1`, for which the “% Inhibition” value worked out at 0% and the Z score was determined as 0.01.
On to `CC1CCN(Cc2cccc(CNC(=O)c3ccoc3)c2)CC1`, for which the “% Inhibition” value amounted to 11% and the Z score is -1.58.
With `O[C@H]1C[C@H](C(Nc2ncccc2C(F)(F)F)c2ccccn2)C1` (stereo not given in full), the “% Inhibition” value was -10% and the Z score was determined as 1.12.
`Cc1onc(N)c1S(=O)(=O)NCCn1ccnc1C(C)C`: the “% Inhibition” value was -6% and the Z score came out at 0.83.
As for `C[C@H]1CN(S(=O)(=O)CC(F)(F)F)CCN1S(=O)(=O)CC(F)(F)F`, the “% Inhibition” value is on record as -10% and the Z score was determined as 1.23.
As to `Cc1oc2c(c1C(=O)NC[C@H]1CN(S(C)(=O)=O)CCO1)C(=O)CCC2`, the “% Inhibition” value is listed as -7% and the Z score stood at 0.73.
Consider `CC(C)(C)c1ccc(S(=O)(=O)Nc2ccc3c(c2)COC3)s1`, for which the “% Inhibition” value is recorded as -12% and the Z score is listed as 2.34.
On the same counts, the results for `CC1(O)CCN(C(=O)C2COCCN2CC(F)(F)F)C1` (stereo not given) are 7% and -0.97.
In the case of `Cc1cccc(S(=O)(=O)Nc2ccc(N3CCC(N4CCCCC4)CC3)c(C(=O)O)c2)c1`, the “% Inhibition” value is reported as 0% and the Z score is recorded as -0.04.
In the case of `NC(=O)NC(=O)CN(Cc1cccnc1)Cc1ccco1`, the “% Inhibition” value was found to be 32% and the Z score is listed as -3.61.
Regarding `COCCCN(Cc1nc2ccccc2n1C)C1CCN(C)CC1`, the “% Inhibition” value is -6% and the Z score turned out to be 1.22.
Take `Cc1nnsc1C(=O)N(Cc1cc(C2CC2)n(C)n1)C1CCCC1`: the “% Inhibition” value was -5% and the Z score stood at 0.89.
For the compound `CC1CCCCC1NC(=O)COC(=O)c1cc(Cl)cn1C` (stereo not given), the “% Inhibition” value was determined as 8% and the Z score was -0.88.
For `O=C(Nc1nc2ccccc2[nH]1)C1CCN(c2cc3c(nn2)CCC3)CC1`, the “% Inhibition” value is 31% and the Z score is listed as -0.83.
On the same counts, the results for `CN(C)S(=O)(=O)CCNC(=O)Nc1ccnn1C1CCCCC1` are -13% and 1.71.
Regarding `NC(=O)c1cc[nH]c1[C@H]1CCCN(C(=O)c2cscn2)C1`, the “% Inhibition” value is 11% and the Z score is reported as -1.26.
On to `c1ccc(-c2cn(-c3ccccc3)c3ncnc(N4CCCC4)c23)cc1`, for which the “% Inhibition” value is listed as 35% and the Z score is listed as -0.93.
For `CN(C)c1ncccc1CNc1cnn(CC(=O)N2CCOC(C)(C)C2)c1`, the “% Inhibition” value is listed as -4% and the Z score worked out at 0.69.
On the same counts, the results for `N#Cc1ccnc(Oc2ccc3ccccc3c2)c1` are -5% and 0.94.
Turning to `CCCC[C@H](C)C(=O)NCCc1ccc(C)nc1`, the “% Inhibition” value is on record as -5% and the Z score worked out at 0.86.
On the same counts, the results for `C[C@H]1CC(=O)Nc2ccccc2N1C(=O)Cc1ccc(Cl)cc1` are 4% and -0.45.
In the case of `COCCN1C[C@@H](NC(=O)c2ccc3c(c2)CCCC3)CC1=O`, the “% Inhibition” value is -14% and the Z score was 1.9.
As for `Cc1cc(C(F)(F)F)nn1CC(=O)NCC(=O)N1CCCCCNC(=O)C[C@H]1c1ccccc1`, the “% Inhibition” value was -13% and the Z score came out at 2.03.
For `Cc1cccc(-c2noc(-c3ccoc3C)n2)c1`, the “% Inhibition” value is reported as -7% and the Z score is recorded as 1.04.
Consider `C[C@H]1CCN(c2cc(C(=O)NC3(CC(N)=O)CCCCC3)ccn2)C1`, for which the “% Inhibition” value is recorded as 0% and the Z score is given as 0.06.
For `CCN(Cc1noc(C2CCC2)n1)Cc1nnc(C)s1`, the “% Inhibition” value came out at 9% and the Z score is on record as -1.85.
For the compound `Cc1ccsc1C(=O)Nc1ccc(N(C)C(=O)c2sccc2C)c(F)c1`, the “% Inhibition” value is on record as -18% and the Z score is reported as 1.85.
As to `CCC(NCc1ccncc1OCC1CCOC1)C1CC1C` (stereo not given), the “% Inhibition” value was -1% and the Z score was 0.13.
Turning to `Cc1cccc(-c2noc([C@@H]3CCCCN3)n2)c1`, the “% Inhibition” value stood at 34% and the Z score is on record as -3.89.
Consider `Cc1ncsc1COC(=O)c1c(C(C)C)nn(C)c1Cl`, for which the “% Inhibition” value is on record as 0% and the Z score is -0.05.
`COCc1nc(CN2C[C@H]3CC[C@@H](C2)N(Cc2c(C)noc2C)C3=O)no1`: the “% Inhibition” value is recorded as -13% and the Z score was 2.52.
On the same counts, the results for `COCCN1C[C@]2(CCCN(C(=O)COc3ccc(F)cc3)C2)CCC1=O` are -5% and 0.9.
Turning to `Fc1ccc(CN2CCc3[nH]nc(C4CC4)c3C2)c(F)c1F`, the “% Inhibition” value was 8% and the Z score was -1.27.
On the same counts, the results for `O=C(NCc1cccnc1-n1cnc2ccccc21)c1cc(Cl)c[nH]c1=O` are 6% and -0.74.
On to `C[C@H](NC(=O)N1CCCC(c2cncn2C(C)(C)C)C1)C(=O)N(C)C` (stereo not given in full), for which the “% Inhibition” value was -13% and the Z score was 1.51.
Regarding `COCCN1C[C@@H](Cc2ccccc2-c2nnc(C)s2)CC1=O`, the “% Inhibition” value is given as -16% and the Z score stood at 2.69.
Take `COc1ccc(C(=O)CCC(=O)N2CC[C@](C)(O)[C@H](O)C2)cc1`: the “% Inhibition” value is given as -4% and the Z score came out at 0.5.
As for `O=C1CCN(C(=O)c2cc3ccccc3[nH]2)CCOCCN1`, the “% Inhibition” value turned out to be 1% and the Z score is -0.2.
For the compound `CCN1CCCc2cc(CN(CCN3CCOCC3)C(=O)Nc3ccc(C)c(C)c3)ccc21`, the “% Inhibition” value was -9% and the Z score was found to be 1.43.
In the case of `Cc1cccc(C)c1NC(=O)Cn1c(=O)cnc2cc(C(=O)NC3CCCC3)ccc21`, the “% Inhibition” value is -9% and the Z score is listed as 0.99.
On to `Cc1nn(C)cc1Cn1ncc2ccccc2c1=O`, for which the “% Inhibition” value is recorded as -21% and the Z score came to 2.41.
As for `CCS(=O)(=O)N1CCc2nn(Cc3ccccc3)c(=O)n2CC1`, the “% Inhibition” value is -18% and the Z score turned out to be 2.32.
As to `c1cn(-c2ccc3c(c2)OCO3)c(-c2cnc(N3CCOCC3)nc2)n1`, the “% Inhibition” value was -12% and the Z score was 1.09.
Turning to `Cc1cc(S(=O)(=O)NCc2cccc(N)c2)c(C)o1`, the “% Inhibition” value is given as -10% and the Z score was 1.43.
In the case of `COC[C@H](C)Nc1nc(-c2ccc(S(=O)(=O)N3CCCCCC3)cc2)cs1`, the “% Inhibition” value was -38% and the Z score is recorded as 4.48.
On the same counts, the results for `Cc1cnc(C[C@H]2CCN(S(=O)(=O)c3ccc4c(c3)OCCO4)C2)n1C1CC1` are -11% and 1.33.
Regarding `CC(=O)N[C@@H](CC(=O)OCC(=O)Nc1cc(C(C)(C)C)nn1-c1ccccc1Cl)c1ccccc1`, the “% Inhibition” value was -4% and the Z score was 0.93.
Consider `Cc1ccccc1CNC(=O)c1nn[nH]c1Nc1ccccc1F`, for which the “% Inhibition” value is given as -1% and the Z score is 0.18.
For `Cc1nnc(NC(=O)c2nn(Cc3ccccc3)c(=O)c3ccccc23)o1`, the “% Inhibition” value is 8% and the Z score is given as -1.09.
With `CC(C)c1nn(-c2ccccc2)c(Oc2ccccc2F)c1CN(C[C@H](O)COCc1ccccc1)C1CC1`, the “% Inhibition” value was 0% and the Z score is -0.06.
Turning to `O=C(NCc1ccc2[nH]cnc2c1)c1cc(C(F)F)n[nH]1`, the “% Inhibition” value is -9% and the Z score was 1.8.
On to `Cc1cc(C(=O)Nc2cncc(F)c2)no1`, for which the “% Inhibition” value is -14% and the Z score came out at 2.75.
With `COc1ccc([C@@H]2CCCN2C(=O)c2cnc(C)cn2)cc1OC`, the “% Inhibition” value amounted to 2% and the Z score is given as -0.14.
`CC1(C)N(O)C(c2ccc[nH]2)N(O)C1(C)C`: the “% Inhibition” value was found to be 6% and the Z score is recorded as -0.82.
Take `COc1c(C(=O)N2CCN(C(C)(C)C)CC2)c(C)nn1C`: the “% Inhibition” value is 4% and the Z score is listed as -0.65.
As for `CCOc1nc(-c2ccccc2)c(S(=O)(=O)c2ccc(Cl)cc2)s1`, the “% Inhibition” value is given as 1% and the Z score is reported as -0.18.
Regarding `Cc1nscc1C(=O)Nc1cc(CS(C)(=O)=O)ccc1Cl`, the “% Inhibition” value is recorded as 9% and the Z score was -1.22.
On the same counts, the results for `CCOc1cccc2nnc(NC(=O)NCc3ccc(C)cc3)n12` are -5% and 0.62.
Regarding `COc1ccc(/C=C/CN2CCN(CC(C)C)[C@@H]3CS(=O)(=O)C[C@@H]32)cc1`, the “% Inhibition” value is listed as -11% and the Z score was 1.11.
In the case of `CC(=O)c1ccc(N2C(=O)[C@H]3[C@@H](C2=O)[C@]2(C(=O)Nc4ccc(C)cc42)N2CCC[C@@H]32)cc1`, the “% Inhibition” value is listed as -12% and the Z score is given as 1.48.
As to `Cc1nc[nH]c1CN1CCC[C@H](CCNC(=O)NC2CCCC2)C1`, the “% Inhibition” value was -7% and the Z score is 0.89.
On the same counts, the results for `Fc1ccc([C@@H]2Cc3ccccc3N2)cc1` are 2% and -0.26.
On the same counts, the results for `Cc1noc(C)c1S(=O)(=O)N[C@@H](C)c1nc2c(s1)CCCC2` are -6% and 1.11.
On the same counts, the results for `Cc1ccc2oc([C@H]3CCN(Cc4cccc(Cl)c4)C3)nc2c1` are 14% and -1.59.
`COCCn1ncc(N2CC[C@H](C(=O)N(C)Cc3ccc(N4CCN(C)CC4)cc3)C2)cc1=O`: the “% Inhibition” value is -10% and the Z score was 1.9.
For the compound `O=C(NCc1ccccc1F)[C@@H]1CCCN1c1nnc(N2CCCC2=O)s1`, the “% Inhibition” value is 6% and the Z score is on record as -0.93.
